Data reported in PubChem BioAssay AID445 (National Center for Advancing Translational Sciences (NCATS), 2006).
Out of some 110,000 compounds screened, about 40 (0.04%) were called active. The inconclusive results got no clear call from the source; some entries with a clear call stand among them for comparison. Calls follow the shape of the dose curve; as a rule, active = well fitted curve in the direction sought with a large enough effect in the signal ratio (not every such curve was filed as active); inconclusive = small, poorly fitted or top-dose-only effect, or a change in a side signal; inactive = flat fitted curve, though single readings scatter; the % refers to the signal ratio. A potency beside an inconclusive call is a rough fit, not a confirmed value.

Assay: IkB Signaling;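 as to IkBa stabilization activation: 0% = basal untreated cells and 100% = reference inhibitor full response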
Settings: ABC-DLBCL IkBa-CBG/CBR dual luciferase ratio (green luciferase fused to IkBa over red control in OCI-Ly3 lymphoma cells), 4 h; IkBa stabilization activation: at 57.1 µM (top of the series), scaled: untreated 0%, proteasome inhibitor 100% unless noted
Method in brief: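 Luminescence ratio of IκBα-fused green versus native red beetle luciferase in OCI-Ly3 cells, 4 h post-doxycycline with compound; red signal alone, scaled from basal (0%) to zero light (-100%), flagged nonspecific or cytotoxic effects.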
Potency is read from the fitted curve at half-maximal effect.

SMILES | IkBa stabilization activation | Potency
CCc1cccc(C)c1NC(=O)CN1CCN(Cc2ccccc2Cl)S1(=O)=O | inconclusive: 3.32% [signal inhibitor] | 
CCc1ccc(NC(=O)Cn2c(=O)c3cccn3c3ccccc32)cc1 | inconclusive: -0.161% [signal inhibitor] | 
Cc1nn(-c2ccccc2)c(C)c1C(=O)OCC(=O)Nc1ccc2c(c1)OCO2 | inconclusive: 8.88% [signal inhibitor] | 
CCN(CC)S(=O)(=O)c1ccc2c(c1)N(CC(=O)N1CCN(c3cccc(C)c3)C(C)C1)C(=O)CO2 (centres undefined) | inconclusive: 1.49% [signal inhibitor] | 
COc1ccc(-c2csc3nc(-c4ccc(Cl)cc4)oc(=O)c23)cc1 |  | inconclusive: 5.01 µM [signal inhibitor]
Cc1cccc(NC(=O)CCn2cnnn2)c1 | inconclusive: 10.2% [signal inhibitor] | 
COc1cc(C(=O)Nc2ccc3nc4n(c(=O)c3c2)CCCCC4)cc(OC)c1OC | inconclusive: -1.68% [signal inhibitor] | 
CCOC(=O)c1ccoc1CSCc1ccc(C(=O)OC)o1 | inconclusive: 2.65% [signal activator] | 
COc1ccccc1-n1cnc2cc(NCc3ccco3)ccc21 |  | inconclusive: 25.1 µM [signal inhibitor, partial curve]
Cc1cc(NC(=O)Nc2ccc3c(ccn3C)c2)sn1 | inactive | 
Cc1ccc(C)c(-n2c(Cc3cc(=O)[nH]c(=O)[nH]3)nnc2SCC(=O)NCc2ccco2)c1 | inactive: 0.0363% | 
O=S(=O)(Nc1ccc2c(c1)OCCO2)c1ccc2oc3ccccc3c2c1 | inconclusive: 0.129% [signal inhibitor] | 
COc1ccc(S(=O)(=O)N2CCC(Oc3cccc(C(F)(F)F)c3)CC2)cc1OC | inconclusive: 0.548% [signal inhibitor] | 
COc1ccc(CCn2c(=N)c(C(=O)N3CCN(C)CC3)cc3c(=O)n4ccccc4nc32)cc1 | inactive: -1.28% | 
COc1cc(-c2nnc(SCc3ccccc3Cl)o2)cc(OC)c1OC | inactive: 4.89% | 
Cc1ccc(C)c(NC(=O)CSc2nc3nccnc3c(=O)n2CCc2c[nH]c3ccccc23)c1 | inconclusive: 3.01% [signal inhibitor] | 
Cc1ccc(-c2nnc(SCC(=O)N3c4ccccc4NC(=O)C3(C)C)n2N)cc1 | inconclusive: 1.47% [signal inhibitor] | 
CN1CCN(Cc2nc3c(c(=O)[nH]c(=O)n3C)n2Cc2c(F)cccc2Cl)CC1 | inactive: 1.59% | 
CCOc1ccc2c(ccc(/C=C\c3cc(C)c4cccnc4c3O)[n+]2C)c1 | inconclusive: 11.1% [signal inhibitor] [at 11.4 µM, scaled: untreated 0%, proteasome inhibitor 100%] | 
COc1cc(C(=O)NCCc2sc(-c3ccc(C)cc3)nc2C)cc(OC)c1OC | inconclusive: 5.27% [signal inhibitor] | 
CC1CCN(C(=O)Cn2cc(SCC(=O)NCc3ccc(F)cc3)c3ccccc32)CC1 | inconclusive: 3.07% [signal inhibitor] | 
O=C(CSc1nnc(-c2ccccc2Cl)n1Cc1ccco1)Nc1ccc2c(c1)OCCO2 | inconclusive: 2.65% [signal inhibitor] | 

SMILES | IkBa stabilization activation | Potency
COc1ccc(C(=O)/C=C/c2cn(CC(O)CN3CCCCCC3)c3ccccc23)cc1OC (centres undefined) | inconclusive: 9.13% [signal inhibitor] | 
COc1ccc(NC(=O)CSc2nc3ccccc3nc2N2CCOCC2)c(OC)c1 | inconclusive: 4.35% [signal inhibitor] | 
Cn1c(=O)c2cc(C(=O)NCCCN3CCN(c4ccc(F)cc4)CC3)sc2c2ccccc21 | inactive: -3.56% | 
CCc1ccc(NC(=O)CCc2c(C)nn(-c3ccc(N4CCCC4)nn3)c2C)cc1 | inconclusive: 0.636% [signal inhibitor] | 
C=CC(C)(C)c1[nH]c2ccccc2c1C1=C(O)C(=O)C(c2c[nH]c3c(CC=C(C)C)cccc23)=C(O)C1=O | inconclusive: 1.44% [signal inhibitor] | 
COc1cc(C(=O)Nc2nc(OC)c(-c3ccccc3)c(OC)n2)cc(OC)c1OC | inactive: -3.04% | 
COc1ccc(NS(=O)(=O)c2cnc(N)nc2)cc1Cl | inconclusive: 3.35% [signal inhibitor] | 
CN(C)c1ccc(-c2cc(-n3ccnc3)ncn2)cc1 | inactive: 0.278% [at 11.4 µM, scaled: untreated 0%, proteasome inhibitor 100%] | 
CC(=O)c1ccc(Oc2ncnc3c2oc2ccccc23)cc1 | inactive: -2.01% | 
CCCn1c(NCc2cc(OC)ccc2OC)nc2ccccc21 | inconclusive: 7.63% [signal inhibitor] | 
COc1ccc(NC(=O)CCS(=O)(=O)c2cc3c4c(c2)CCN4C(=O)CC3)c(OC)c1 | inconclusive: 0.564% [signal activator] | 
COc1ccc(C(=O)c2c(N)c(C(=O)Nc3ccccc3Cl)c3ccccn23)cc1 | inactive: 0.483% | 
O=C(COc1ccc2oc3c(c2c1)CCCC3)Nc1cccc(Br)c1 | inconclusive: 5.39% [signal inhibitor] | 
Cn1c(=O)oc2cc(S(=O)(=O)N3CCC4(CC3)OCCO4)ccc21 |  | inconclusive: 3.16 µM [signal inhibitor, full curve]
CCC(C)NC(=O)CCCn1c(=O)c2cccn2c2ccccc21 (centres undefined) | inconclusive: 1.72% [signal inhibitor] | 
Cc1ccc2nc(-c3ccccc3Cl)cc(C(=O)Nc3cc(C)on3)c2c1 | inconclusive: 4.39% [signal inhibitor] | 
COc1ccc(C2(C(=O)Nc3c(C)n(C)n(-c4ccccc4)c3=O)CCCC2)cc1OC | inactive: -1.14% | 
CCn1c(=N)c(C(=O)OC)cc2c(=O)n3ccccc3nc21 | inactive: -1.81% | 
COC(=O)c1ccc(Oc2nc(NC(C)C)nc(N(C)C)n2)cc1 | inactive: -0.169% | 
CCC(C(=O)NC1CCCCC1)n1c(SCc2ccccc2F)nc2ccncc21 (centres undefined) | inconclusive: -0.27% [signal inhibitor] | 
Cc1ccccc1C(=O)Nc1cccc(NC(=O)c2ccc(C(C)(C)C)cc2)c1 | inactive: 17% | 
CCc1ccc(NC(=O)CSc2ccc(-c3sc(-c4ccccc4)nc3C)nn2)cc1 | inconclusive: 8.34% [signal inhibitor] | 
